# Whole data set: some 33,000 sequences, median “E-score (-0.5 to 0.5)” near -0.054, cut for the highest 2% near 0.39. The list shows a part of the results.
# Target: Ylr278c (UniProt Q05854)
# Assay: PBM E-score (8-mer binding enrichment) (E-score (-0.5 to 0.5)); higher = stronger / more preferred TF binding; most listed sequences are background and not binding sites
# Settings: protein concentration: 200 nM; construct: GST-DNA-binding domain
# Method in brief: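 Detection of bound protein used fluorescent anti-GST, with scans normalised by masliner. The proteins were GST-tagged yeast transcription factors applied at about 100-200 nM to universal all-10-mer Agilent arrays made double-stranded by primer extension. Each ungapped eight-base word, pooled with its reverse complement, was scored with an E-score from the Universal PBM Analysis Suite.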
row,Sequence,PBM E-score
1,CTACAGAG,-0.217
2,GGAATATA,0.299
3,CGGCGGGC,0.222
4,GGTAGTTA,0.0587
5,ACGCTGGG,-0.159
6,GTGATTCA,-0.271
7,CGTACGAC,-0.152
8,CAGATCAC,0.0365
9,GGAGTCGA,0.0903
10,CGTAATTA,0.0408
11,CGATGGAG,0.288
12,AGGCAAGG,-0.186
13,CGGCAGGC,0.102
14,ACATATAC,-0.0995
15,ACTGGGAT,-0.0964
16,ATGGACGG,0.231
17,CAGTCCGC,0.202
18,CACCGTGG,-0.115
19,AGCTAAAG,-0.246
20,GGCTGCGA,0.0266
21,CATCAAAG,-0.134
22,AAACCTTA,-0.0533

row,Sequence,PBM E-score
1,AAACTATA,0.0122
2,ACTACGTG,-0.179
3,ATGCGAGA,-0.0782
4,ACGACGCC,-0.108
5,CCGCTGCC,0.138
6,CAAATACC,0.0412
7,GCTGCTGA,-0.196
8,AGGTGCGA,-0.0144
9,AGAAAGAA,0.0436
10,AACCCCAG,-0.0147
11,AACTGCGA,0.148
12,ATTTTTCC,0.209
13,CTGGAAGA,-0.121
14,AACCCCCG,0.26
15,TAGATAGA,-0.171
16,TCATTCGA,-0.182
17,CCAACGCC,0.136
18,ATTGCAAC,-0.0584
19,AAACCGGG,0.215
20,CAAGCTGG,-0.115
21,CTAGTTCA,-0.225
22,AGGGATAG,-0.0362

row,Sequence,PBM E-score
1,AGATCGGC,0.224
2,TACTGATA,-0.07
3,AGTCACAC,-0.173
4,CTTTTTGC,0.0657
5,AGATGTAG,-0.0226
6,ATTTAGAC,-0.0454
7,GCGCGTAA,0.0786
8,AAAGAACC,0.0884
9,GCAGCGTA,-0.181
10,AAAGGCCT,-0.267
11,AACTTTCA,-0.121
12,GCTCTCCA,-0.269
13,CTGACCGA,-0.0157
14,AACTGGAC,-0.193
15,ATACGCAA,-0.132
16,ACTGGGGA,-0.0389
17,AGTCTTGA,-0.247
18,AAGAAGCG,-0.0347
19,CGATTCAC,-0.0556
20,AGGACACG,0.0321
21,AATTATCA,-0.104
22,GAACGAGC,-0.0145

row,Sequence,PBM E-score
1,AGGGTCGC,0.0614
2,AATAAGCA,-0.138
3,CCGGGCTC,0.299
4,ACGCCAAG,-0.201
5,GCGGGAAC,0.194
6,GATGGTGA,-0.0412
7,CCCACCAC,0.0529
8,AACCTCCA,-0.222
9,GACTGCGA,0.0431
10,CTAACGTC,-0.0586
11,CGCTGGAG,-0.0988
12,CACGAACG,-0.0613
13,ACCGCCTG,-0.0231
14,ATCTACCA,-0.113
15,GAGTGACA,-0.00079
16,GAGGACTA,-0.0911
17,ATGCCTAA,-0.184
18,ACTCGGGC,0.146
19,ATTTCCCC,0.127
20,GATGCACA,-0.128
21,GTTGTCGA,-0.129
22,ATGATGTA,-0.0547

row,Sequence,PBM E-score
1,AGCACATA,-0.0813
2,ATGCTTTC,-0.101
3,GGTATTTA,0.144
4,AAAAGAAG,-0.0265
5,ACGGACCG,0.335
6,GAACTTGA,0.15
7,AGGTGGTG,-0.0566
8,CTATAGAA,-0.281
9,GATGATCC,0.105
10,CTAACCGC,-0.0705
11,CCGGAGAG,0.456
12,CTAACTCC,0.291
13,TTATCGAA,0.019
14,ATCGTAGA,-0.29
15,AACGAAAA,-0.118
16,AACGAGAA,-0.0628
17,CTTACGTA,-0.211
18,TAGTCGGA,0.414
19,ATAAGAAA,-0.0158
20,ACTAACCG,0.0907
21,ACCCGAGT,0.181
22,TACCTACA,-0.161
